Measured values: the supplement of paper PMC3334620
In all, about 33,000 sequences were measured (“E-score (-0.5 to 0.5)”: median about -0.054, highest 2% from about 0.35 on). Some of the results follow.

Target: T1, Stb5 (UniProt P38699)
T1 sequence: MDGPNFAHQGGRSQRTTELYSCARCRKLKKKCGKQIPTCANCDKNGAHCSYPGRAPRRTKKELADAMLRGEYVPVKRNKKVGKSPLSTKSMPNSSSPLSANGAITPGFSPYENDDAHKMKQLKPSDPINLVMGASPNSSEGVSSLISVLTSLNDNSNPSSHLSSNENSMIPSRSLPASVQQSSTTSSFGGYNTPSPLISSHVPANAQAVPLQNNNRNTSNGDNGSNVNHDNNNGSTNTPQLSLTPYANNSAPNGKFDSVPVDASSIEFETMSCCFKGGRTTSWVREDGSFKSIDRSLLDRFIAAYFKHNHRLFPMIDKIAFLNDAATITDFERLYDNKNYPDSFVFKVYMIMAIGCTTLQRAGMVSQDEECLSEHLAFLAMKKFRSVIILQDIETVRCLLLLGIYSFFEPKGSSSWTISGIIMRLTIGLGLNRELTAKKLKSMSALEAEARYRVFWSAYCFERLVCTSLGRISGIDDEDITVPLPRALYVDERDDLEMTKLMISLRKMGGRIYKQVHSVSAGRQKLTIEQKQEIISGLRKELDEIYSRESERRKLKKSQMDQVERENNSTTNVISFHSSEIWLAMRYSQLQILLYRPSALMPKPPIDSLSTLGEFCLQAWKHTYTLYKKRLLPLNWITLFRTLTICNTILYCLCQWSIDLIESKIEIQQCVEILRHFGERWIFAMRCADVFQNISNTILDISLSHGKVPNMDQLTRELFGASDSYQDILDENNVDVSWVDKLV
Experiment: PBM E-score (8-mer binding enrichment) (E-score (-0.5 to 0.5)); higher = stronger / more preferred TF binding; most listed sequences are background and not binding sites
Settings: protein concentration: 200 nM; construct: GST-full length
Summary of the method: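 Using PURExpress in vitro transcription/translation, GST-tagged yeast transcription factors were made in full-length or DNA-binding-domain form. These were applied at about 100-200 nM to double-stranded universal all-10-mer Agilent arrays, and bound protein was detected with fluorescent anti-GST. Scans were normalised with masliner before the Universal PBM Analysis Suite assigned E-scores to ungapped eight-base words pooled with their reverse complements.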

Row | Sequence | PBM E-score
1 | CACGCATC | 0.0305
2 | ACCCCCCT | -0.245
3 | CAACAATA | -0.106
4 | TACTGTCA | -0.151
5 | AGGATTCA | -0.212
6 | CTACCGAA | 0.0544
7 | CTCCAAGA | -0.418
8 | CTGGAGTC | -0.228
9 | CGCCTAAC | 0.116
10 | ACCGGCAT | 0.337
11 | CCAGTGAC | -0.278
12 | ATATGAAC | 0.00152
13 | GTCACGGA | 0.195
14 | CAGATTGG | -0.11
15 | ATATGGGG | -0.00027
16 | AAGATACA | -0.175
17 | AAGAAGTA | -0.102
18 | GGTCTGTA | 0.0136
19 | CAGTCCCC | -0.0834
20 | ATGGGGGC | -0.0967
21 | CACCAAGC | -0.0707
22 | AGAGAGCG | 0.0126
23 | ACTAGACG | -0.142
24 | CACAAATG | -0.149
25 | CAACGGAA | 0.0716

Row | Sequence | PBM E-score
26 | GTACGGCA | 0.136
27 | GCGGACCC | 0.299
28 | TCGTGAGA | 0.0768
29 | AACCAGGC | 0.00402
30 | CTCGCACC | -0.0397
31 | AAAGGCGC | -0.0348
32 | TCAAGTCA | -0.175
33 | GTCCGGCA | 0.326
34 | GTCTGAAC | -0.291
35 | AAGAATTC | -0.0986
36 | ACGTTTTC | -0.151
37 | AAGGCGAA | -0.0519
38 | AGGCAACC | -0.251
39 | ATTAAAAA | 0.132
40 | ATATCCAC | 0.0538
41 | AAATGAGC | -0.0043
42 | ATTCGGCG | 0.253
43 | AGGCGTAT | -0.351
44 | CGTACCTC | -0.0812
45 | GGCGAACA | 0.00107
46 | CAACGCAA | -0.153
47 | CGTCGTCC | 0.015
48 | CCCGGCGG | 0.346
49 | GCTAACAC | 0.12
50 | ACATGGGG | -0.0579

Row | Sequence | PBM E-score
51 | CCCATAAG | 0.0301
52 | AATGGCTA | -0.234
53 | AGCCTCCT | -0.197
54 | ACCCTAGG | -0.165
55 | GGGTATGA | 0.0414
56 | CCAAAAGA | -0.00867
57 | GTTAGCAA | -0.0846
58 | CACCGACG | 0.453
59 | AGGCGAGC | -0.274
60 | CCAACCGG | 0.115
61 | AGTTCCTC | -0.063
62 | TGGACCAA | -0.112
63 | ATAGACAC | -0.129
64 | ACTAATTA | -0.0164
65 | GATTCGAA | 0.0331
66 | GCCGATCA | 0.257
67 | ACCGGGCT | 0.38
68 | AGATACAC | -0.0174
69 | AGATTGCT | -0.13
70 | CATCACAC | -0.106
71 | CACCATCC | -0.00376
72 | GAACAATC | -0.0939
73 | AAATCAGC | -0.0153
74 | GTTGAATA | -0.0531
75 | AGTGATGC | -0.129

Row | Sequence | PBM E-score
76 | CATGCAGG | -0.294
77 | CTTCGCCC | -0.0134
78 | GGCGCTGA | 0.136
79 | ATCATGGC | -0.00977
80 | ACATGTCG | 0.142
81 | GTTTTCAA | -0.0238
82 | GGAGCATA | 0.139
83 | ACTATGGG | -0.177
84 | ACTTGGTC | 0.00341
85 | CCGCCACG | 0.284
86 | CACCGTTC | 0.368
87 | AGTCGTCC | -0.113
88 | AAGCATAC | -0.201
89 | ACTGCCAC | -0.127
90 | ATATCAAG | -0.0382
91 | ATAAAGCA | -0.281
92 | AGATGTAA | -0.0933
93 | CCCCTGAG | -0.252
94 | CATACAGG | -0.218
95 | ACTGAGGG | -0.272
96 | CTATCATC | 0.0322
97 | CGGTCCAA | 0.186
98 | AGGAACTA | 0.0488
99 | ATGCCAGG | -0.176
100 | ATAGGAAG | -0.141

Row | Sequence | PBM E-score
101 | CGTGATCA | 0.00777
102 | AATCGTTA | -0.232
103 | TCCACGGA | 0.243
104 | ATATGCCC | 0.266
105 | GAATTGCA | -0.0977
106 | CCAGCTCC | -0.0313
107 | ATACCTAC | -0.0145
108 | ACTCGAAC | 0.00108
109 | GATGACCC | -0.304
110 | AGACTGCG | -0.124
111 | CTATGGAG | -0.195
112 | TATTCTGA | -0.0984
113 | AAGTTTAC | 0.0415
114 | ATAGTTTA | -0.0841
115 | CTAGACGA | -0.244
116 | GCTTGAGA | -0.147
117 | AGTACGGC | 0.136
118 | AGACTGGG | -0.255
119 | ACACCGGG | 0.417
120 | AAAGACTT | -0.201
121 | ACTGAGCT | -0.0384
122 | CTGAGATA | 0.00305
123 | GTCAATGA | -0.142
124 | AAAATGCG | 0.126
125 | CAAGGCGC | 0.0884

Row | Sequence | PBM E-score
126 | GGGAAAGA | -0.287
127 | GGGTGCAA | 0.0314
128 | TAAAGATA | -0.0745
129 | CTTCACTA | -0.138
130 | TAGTGCCA | 0.0726
131 | ACGCTAGA | -0.0848
132 | ACCGAGGA | 0.195
133 | AGTATGTA | -0.129
134 | TAGTAAAA | -0.0474
135 | ATCAAGTA | -0.133
136 | ACAATCTG | -0.0232
137 | CCATACGA | -0.102
138 | TATCCTAA | -0.109
139 | AAGCAGTC | -0.226
140 | ACACCGGC | 0.4
141 | CGACTGTA | 0.104
142 | ATATGCTA | -0.0569
143 | GCAAATAA | 0.0787
144 | CGTCTCTA | -0.145
145 | AACCTTCG | -0.0851
146 | AACCGTCA | 0.0839
147 | CTGGCGAC | -0.194
148 | TTGTCAAA | -0.0497
149 | GTACTCAC | -0.197
150 | AAGTAAAG | -0.0899

Row | Sequence | PBM E-score
151 | TAGGTAGA | -0.147
152 | CCTTCAAA | -0.00408
153 | ATTCCCAG | -0.0479
154 | ACTAGCAC | 0.0392
155 | CCGGTGAC | 0.292
156 | CTCCGATA | 0.318
157 | ATTTTATA | 0.0929
158 | AGTTGTAA | -0.192
159 | AGCAATGG | 0.0681
160 | GCTTCTAC | -0.0648
161 | ATGGTGAG | -0.136
162 | GACCAGTC | -0.0453
163 | AGGACAGA | -0.218
164 | CTTGAATA | -0.0858
165 | CCTCCCAA | -0.0762
166 | GGAGGAGA | -0.149
167 | CAAATTGC | -0.121
168 | ACGCTGCT | -0.0899
169 | GAACTAGA | -0.0192
170 | AATGCGGG | 0.23
171 | CAGACATC | -0.148
172 | ATGGAAGC | -0.183
